Sequences and labels used below:
B1: GPR68, Q15743 (parent)
chain: MGNITADNSSMSCTIDHTIHQTLAPVVYVTVLVVGFPANCLSLYFGYLQIKARNELGVYLCNLTVADLFYICSLPFWLQYVLQHDNWSHGDLSCQVCGILLYENIYISVGFLCCISVDRYLAVAHPFRFHQFRTLKAAVGVSVVIWAKELLTSIYFLMHEEVIEDENQHRVCFEHYPIQAWQRAINYYRFLVGFLFPICLLLASYQGILRAVRRSHGTQKSRKDQIQRLVLSTVVIFLACFLPYHVLLLVRSVWEASCDFAKGVFNAYHFSLLLTSFNCVADPVLYCFVSETTHRDLARLRGACLAFLTCSRTGRAREAYPLGAPEASGKSGAQGEEPELLTKLHPAFQTPNSPGSGGFPTGRLA

The variants in series [1] derive from B1. The series can be described thus: cAMP reporter score (Enrich2 score, wild type = 0); higher = more signal; HEK293T, FACS bins.
In series [2] the parent is B1. Description: surface expression score (Enrich2 score, wild type = 0); higher = more signal; HEK293T, FACS bins.

Scores with a large standard error are left out. Not listed are two conditions whose scores span a narrow range. In variant names, del marks residues removed and ins residues inserted between the two positions. For some assays here: The data file names ogerin without a concentration.

MGNITADVSSMSCTIDHTIHQTLAPVVYVTVLVVGFPANCLSLYFGYLQIKARNELGVYLCNLTVADLFYICSLPFWLQYVLQHDNWSHGDLSCQVCGILLYENIYISVGFLCCISVDRYLAVAHPFRFHQFRTLKAAVGVSVVIWAKELLTSIYFLMHEEVIEDENQHRVCFEHYPIQAWQRAINYYRFLVGFLFPICLLLASYQGILRAVRRSHGTQKSRKDQIQRLVLSTVVIFLACFLPYHVLLLVRSVWEASCDFAKGVFNAYHFSLLLTSFNCVADPVLYCFVSETTHRDLARLRGACLAFLTCSRTGRAREAYPLGAPEASGKSGAQGEEPELLTKLHPAFQTPNSPGSGGFPTGRLA [N8V]: the cAMP reporter score is -0.894 in series [1] (pH 5.5); -0.782 in series [1] (pH 6); -1.14 in series [1] (pH 6, modulator: ogerin); -1.06 in series [1] (pH 6.5, modulator: ogerin). Also, the surface expression score in series [2] was -0.656.

In the case of MGNITADTSSMSCTIDHTIHQTLAPVVYVTVLVVGFPANCLSLYFGYLQIKARNELGVYLCNLTVADLFYICSLPFWLQYVLQHDNWSHGDLSCQVCGILLYENIYISVGFLCCISVDRYLAVAHPFRFHQFRTLKAAVGVSVVIWAKELLTSIYFLMHEEVIEDENQHRVCFEHYPIQAWQRAINYYRFLVGFLFPICLLLASYQGILRAVRRSHGTQKSRKDQIQRLVLSTVVIFLACFLPYHVLLLVRSVWEASCDFAKGVFNAYHFSLLLTSFNCVADPVLYCFVSETTHRDLARLRGACLAFLTCSRTGRAREAYPLGAPEASGKSGAQGEEPELLTKLHPAFQTPNSPGSGGFPTGRLA [N8T], the cAMP reporter score in series [1] (pH 5.5) is -0.824; in series [1] (pH 6), -0.941; in series [1] (pH 6, modulator: ogerin), -1.05; in series [1] (pH 6.5, modulator: ogerin) it was -1.24. Moreover, the surface expression score in series [2] was -1.35.

With MGNITADWSSMSCTIDHTIHQTLAPVVYVTVLVVGFPANCLSLYFGYLQIKARNELGVYLCNLTVADLFYICSLPFWLQYVLQHDNWSHGDLSCQVCGILLYENIYISVGFLCCISVDRYLAVAHPFRFHQFRTLKAAVGVSVVIWAKELLTSIYFLMHEEVIEDENQHRVCFEHYPIQAWQRAINYYRFLVGFLFPICLLLASYQGILRAVRRSHGTQKSRKDQIQRLVLSTVVIFLACFLPYHVLLLVRSVWEASCDFAKGVFNAYHFSLLLTSFNCVADPVLYCFVSETTHRDLARLRGACLAFLTCSRTGRAREAYPLGAPEASGKSGAQGEEPELLTKLHPAFQTPNSPGSGGFPTGRLA [N8W], the cAMP reporter score is -0.38 in series [1] (pH 5.5); -0.144 in series [1] (pH 6); -0.94 in series [1] (pH 6, modulator: ogerin); -1.48 in series [1] (pH 6.5, modulator: ogerin). Also, the surface expression score in series [2] is -1.49.

Regarding MGNITADSSSMSCTIDHTIHQTLAPVVYVTVLVVGFPANCLSLYFGYLQIKARNELGVYLCNLTVADLFYICSLPFWLQYVLQHDNWSHGDLSCQVCGILLYENIYISVGFLCCISVDRYLAVAHPFRFHQFRTLKAAVGVSVVIWAKELLTSIYFLMHEEVIEDENQHRVCFEHYPIQAWQRAINYYRFLVGFLFPICLLLASYQGILRAVRRSHGTQKSRKDQIQRLVLSTVVIFLACFLPYHVLLLVRSVWEASCDFAKGVFNAYHFSLLLTSFNCVADPVLYCFVSETTHRDLARLRGACLAFLTCSRTGRAREAYPLGAPEASGKSGAQGEEPELLTKLHPAFQTPNSPGSGGFPTGRLA [N8S], the cAMP reporter score in series [1] (pH 5.5) is 1.5; in series [1] (pH 6), -0.138; in series [1] (pH 6, modulator: ogerin) it was 1.03; in series [1] (pH 6.5, modulator: ogerin) it was 0.371. Besides, the surface expression score in series [2] was -0.139.
